Results from PubChem BioAssay AID1745853 (National Center for Advancing Translational Sciences (NCATS), 2022).
Some of the results follow. The main result of the screen is listed elsewhere. These columns were measured beside it and carry no call.

Legend:
Assay in all cases: Primary Screen for Target Class Profiling of Small Molecule Inhibitors of Methyltransferases
[1] = target: Glycine N-methyltransferase (Homo sapiens) (UniProt Q14749); details: purified enzyme, MTase-Glo SAH luminescence; measured here: GNMT inhibition; at 40 µM; stronger effect = lower value
In short: (§1)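 Each enzyme was assayed with SAM and its substrate. SAH formation detected by MTase-Glo luminescence; single-point 40 uM screen[…].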

[2] = target: Guanidinoacetate N-methyltransferase (Homo sapiens) (UniProt Q14353); details: purified enzyme, MTase-Glo SAH luminescence; measured here: GAMT inhibition; at 40 µM; stronger effect = lower value
In short: as §1

[3] = target: Histamine N-methyltransferase (Homo sapiens) (UniProt P50135); details: purified enzyme, MTase-Glo SAH luminescence; measured here: HNMT inhibition; at 40 µM; stronger effect = lower value
In short: as §1

[4] = target: Nicotinamide N-methyltransferase (Homo sapiens) (UniProt P40261); details: purified enzyme, MTase-Glo SAH luminescence; measured here: NNMT inhibition; at 40 µM; stronger effect = lower value
In short: as §1

[5] = target: Phenylethanolamine N-methyltransferase (Homo sapiens) (UniProt P11086); details: purified enzyme, MTase-Glo SAH luminescence; measured here: PNMT inhibition; at 40 µM; stronger effect = lower value
In short: as §1
% is set by controls: 0 for no effect and ±100 for the full control effect.

**Q.** With `COc1ccc(CNC(=O)c2ccc3c(=O)nc4c(-c5ccc(Cl)cc5)n[nH]n4c3c2)cc1` as the compound, how does the activity change, negative = inhibition [1] read?
**A.** -2.35%

**Q.** And the activity change, negative = inhibition [2]?
**A.** -0.182%

**Q.** What about the activity change, negative = inhibition [3] of the same compound?
**A.** 2.36%

**Q.** And the activity change, negative = inhibition [4]?
**A.** 0.702%

**Q.** And the activity change, negative = inhibition [5]?
**A.** 1.01%

**Q.** For `Cc1ccc(N2C(=O)c3ccccc3CC2(C)C(=O)NCc2ccccc2)cc1` (stereo not given), which activity change, negative = inhibition [1] is on record?
**A.** 0.7%

**Q.** And the activity change, negative = inhibition [2]?
**A.** 5.13%

**Q.** What about the activity change, negative = inhibition [3] of the same compound?
**A.** -1.13%

**Q.** And the activity change, negative = inhibition [4]?
**A.** -7.04%

**Q.** What about the activity change, negative = inhibition [5] of the same compound?
**A.** -3.3%

**Q.** Which results are given for `Cc1onc(-c2c(F)cccc2Cl)c1C(=O)N[C@@H]1C(=O)N2[C@@H]1SC(C)(C)[C@@H]2C(=O)O`?
**A.** activity change, negative = inhibition [1]: -1.39%; activity change, negative = inhibition [2]: 3.96%; activity change, negative = inhibition [3]: 3.3%; activity change, negative = inhibition [4]: -12.8%; activity change, negative = inhibition [5]: -0.833%

**Q.** For `CC(C)CCNc1nc2c(-c3cccc(Br)c3)nnn2c2ccccc12`, which activity change, negative = inhibition [1] is on record?
**A.** 0.578%

**Q.** What about the activity change, negative = inhibition [2] of the same compound?
**A.** 4.21%

**Q.** And the activity change, negative = inhibition [3]?
**A.** 6.59%

**Q.** And the activity change, negative = inhibition [4]?
**A.** 0.971%

**Q.** And the activity change, negative = inhibition [5]?
**A.** -0.91%

**Q.** With `COc1ccc(-c2n[nH]n3c2nc(=O)c2ccc(C(=O)NCc4ccccn4)cc23)cc1` as the compound, how does the activity change, negative = inhibition [1] read?
**A.** -4.9%

**Q.** And the activity change, negative = inhibition [2]?
**A.** 0%

**Q.** And the activity change, negative = inhibition [3]?
**A.** 8.56%

**Q.** And the activity change, negative = inhibition [4]?
**A.** 9.11%

**Q.** What about the activity change, negative = inhibition [5] of the same compound?
**A.** 4.56%

**Q.** With `CC(C)(Oc1ccc(-c2nc3cc(Cl)ccc3s2)cc1)C(=O)O` as the compound, how does the activity change, negative = inhibition [1] read?
**A.** -13.7%

**Q.** And the activity change, negative = inhibition [2]?
**A.** -24.8%

**Q.** What about the activity change, negative = inhibition [3] of the same compound?
**A.** 0.055%

**Q.** What about the activity change, negative = inhibition [4] of the same compound?
**A.** -44.3%

**Q.** What about the activity change, negative = inhibition [5] of the same compound?
**A.** -11%

**Q.** How did the activity change, negative = inhibition [1] turn out when `CN1C(=O)c2cc(C(=O)NCc3cccc(F)c3)nn2CC1(C)C(=O)NCc1ccc(F)cc1` (stereo not given) was run?
**A.** -4.51%

**Q.** What about the activity change, negative = inhibition [2] of the same compound?
**A.** -4.31%

**Q.** What about the activity change, negative = inhibition [3] of the same compound?
**A.** -10.8%

**Q.** And the activity change, negative = inhibition [4]?
**A.** -1.47%

**Q.** And the activity change, negative = inhibition [5]?
**A.** -5.06%

**Q.** For `Cc1ccc(NC(=O)CSc2nnc3n(CC(C)C)c(=O)c4cc(F)ccc4n23)c(C)c1`, which activity change, negative = inhibition [1] is on record?
**A.** -6.93%

**Q.** What about the activity change, negative = inhibition [2] of the same compound?
**A.** 2.71%

**Q.** What about the activity change, negative = inhibition [3] of the same compound?
**A.** -1.78%

**Q.** What about the activity change, negative = inhibition [4] of the same compound?
**A.** -12.9%

**Q.** What about the activity change, negative = inhibition [5] of the same compound?
**A.** -4.68%

**Q.** How did the activity change, negative = inhibition [1] turn out when `CC1(C)[C@@H]2CC=C(CO[C@@H]3O[C@H](CO[C@@H]4OC[C@H](O)[C@H](O)[C@H]4O)[C@@H](O)[C@H](O)[C@H]3O)[C@H]1C2` was run?
**A.** 4.65%

**Q.** And the activity change, negative = inhibition [2]?
**A.** 4.84%

**Q.** What about the activity change, negative = inhibition [3] of the same compound?
**A.** 10.5%

**Q.** And the activity change, negative = inhibition [4]?
**A.** -8.01%

**Q.** And the activity change, negative = inhibition [5]?
**A.** 7.32%

**Q.** `COCCOCC(=O)N1CCC(N2C(=O)CCC2C(=O)NCc2ccccc2)CC1` (stereo not given) was tested. Which activity change, negative = inhibition [1] did it give?
**A.** -6.69%

**Q.** What about the activity change, negative = inhibition [2] of the same compound?
**A.** -4.43%

**Q.** And the activity change, negative = inhibition [3]?
**A.** -4.72%

**Q.** And the activity change, negative = inhibition [4]?
**A.** -10.2%

**Q.** What about the activity change, negative = inhibition [5] of the same compound?
**A.** -4.79%

**Q.** Which results are given for `O=C(CCc1nnc2n(Cc3ccccc3Cl)c(=O)c3ccccc3n12)N1CCN(C2CCCCC2)CC1`?
**A.** activity change, negative = inhibition [1]: -8.9%; activity change, negative = inhibition [2]: 3.73%; activity change, negative = inhibition [3]: -3.69%; activity change, negative = inhibition [4]: -1.43%; activity change, negative = inhibition [5]: -1.1%

**Q.** How did the activity change, negative = inhibition [1] turn out when `CC(C)c1noc(-c2cn(C3CCN(C(=O)c4ccc5ccccc5n4)C3)nn2)n1` (stereo not given) was run?
**A.** -4.13%

**Q.** And the activity change, negative = inhibition [2]?
**A.** 3.46%

**Q.** What about the activity change, negative = inhibition [3] of the same compound?
**A.** 2.54%

**Q.** And the activity change, negative = inhibition [4]?
**A.** -8.41%

**Q.** And the activity change, negative = inhibition [5]?
**A.** -17.7%

**Q.** With `CCCC1c2ccc(C)n2CCN1C(=O)Nc1ccccc1OCC` (stereo not given) as the compound, how does the activity change, negative = inhibition [1] read?
**A.** 3.46%

**Q.** And the activity change, negative = inhibition [2]?
**A.** -0.148%

**Q.** What about the activity change, negative = inhibition [3] of the same compound?
**A.** -4.51%

**Q.** What about the activity change, negative = inhibition [4] of the same compound?
**A.** 6.73%

**Q.** What about the activity change, negative = inhibition [5] of the same compound?
**A.** -0.76%

**Q.** What does the source list for `C=CCn1c(=O)c2ccc(C(=O)NC(C)C)cc2n2c(=O)n(CC(=O)Nc3ccc(Cl)cc3)nc12`?
**A.** activity change, negative = inhibition [1]: 3.54%; activity change, negative = inhibition [2]: 0%; activity change, negative = inhibition [3]: 4.06%; activity change, negative = inhibition [4]: 2.51%; activity change, negative = inhibition [5]: 3.76%
